In this assay the test system is MDA-N (NCI-60) percent. The assay is described as follows: NCI-60 one-dose screen, 48 h (100 = growth as untreated, 0 = no growth, -100 = all killed). Particulars: 2.5 mM. Here is the method: Growth inhibition of the MDA-N human tumor cell line is measured as a screen for anti-cancer activity. Cells are grown in 96 well plates and exposed to the test compound for 48 hours. Compounds are tested at a single concentration, which is 10^-5 M for most compounds. The reported endpoint is percent growth (GI% or GIPRCNT), where numbers from 0 - 100% represent growth inhibition, and numbers from -100% - 0 represent cell death. For example, a value of 40 represents 60% growth inhibition. A value of 0 means no net growth occurred over the course of the experiment. A value of -40 indicates 40% of cells at the beginning of the experiment died by the end of the experiment. A value of -100 means all cells are dead at the end of the experiment.
NCI-60 Human Tumor Cell Lines Screen was performed using the standard one-dose NCI protocol, which is described in more detail at https://dtp.cancer.gov/discovery_development/nci-60/default.htm.
Compounds with GIPRCNT values below 10 were considered active. Activity score was based on GIPRCNT using the following formula: […]
Score is 0 for GIPRCNT values of 100 or above, 50 for GIPRCNT values of 0, and 100 for GIPRCNT values of -100.

The record followed here is PubChem BioAssay AID1794791 (DTP/NCI, 2022).

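Testing used 96-well plates and a 48-hour single-concentration exposure. Example: -40 means 40% of the starting cells died.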 The source holds more than one record for some entries. This list holds those alone. An entry can have further records. For some assays here: These are repeated runs of one drug, at its own concentration, as given; one value stands for one run. Counts like (3×) count equal records among those shown. Some values that stand alone complete this part of the results.

`O=c1[nH]cc(F)c(=O)[nH]1`: the growth is, setting by setting: (runs of 1993) 25.6, 24.3 (2×), 28.4, 37.1, 40.9, 30.9, 22.1, 27.4, 21%; (runs of 1994) 30.2, 26.7, 12.6, 14.2, 25.7, 28.2, 21.1, 27.7, 38.6, 26.5 (2×), 22, 29.4 (2×), 38.2, 24.2, 32.8, 33.5, 8.96, 31.5, 30.6, 34.5, 23, 45.8, 19.4, 24.4, 27, 24.5, 29.7, 25.5, 24, 19.7, 17.9, 35.4%; (runs of 1995) 33.3, 32.9, 22.1, 17.9, 22.3, 34.1, 21.9, 23.8, 29.8, 27, 18.5, 32.3, 26.5, 27.5, -20.3, 10.3, 27.4, 28, 12.8, 36.5, 33.2, 5.28, 23.1, 29.7, 35.9, 38.7, 26.9, 15.3, 23.4, 18.4, 23.7, 24.7, 29, 33.4, 32.8, 21, 29.9, 46.8, 23.3%; (runs of 1996) 23.5, 31.1, 22.2, 21.3, 42.3, 25.5, 22.5, 14.1, 33.2, 21.2, 9.77, 36.6, 37.7, 22.3, 33.4, 21.1%; (runs of 2000) 0.386%.
